Several values for one entry are separate records, joined by “and”; a condition that tells them apart may be missing. Equal entries are not always repeated. The inconclusive results got no clear call from the source; some entries with a clear call stand among them for comparison. No potency is given beside an inconclusive call; the fits are too rough. For some of these results: A note “side channel” means that the fit belongs to a control or component signal, not to the main read-out. Activity calls are given as the source filed them. Unless noted, the call rests on the fitted dose curve; in most records, active means well fitted curve in the direction sought with a large enough effect in the repeat runs; inconclusive means weak or mixed curves; inactive means no such curve, though single readings can be large; an effect the other way counts as inactive or inconclusive.
system: not listed separately; assay: qHTS assay for small molecule activators of the p53 signaling pathway (AID 651743; active means well fitted activation curve with a large enough effect in the signal ratio, not every such curve was filed as active; inconclusive means small, poorly fitted or top-dose-only effect, or a change in a side signal; the % refers to the signal ratio; on activation: % of control where 0% means no effect); settings: HCT-116 p53RE-bla, beta-lactamase FRET ratio, 16 h; activation: stronger effect = higher value
Procedure, shortened: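 Screen for p53 pathway agonists uses stably transfected p53RE-bla HCT-116 cells, 4,000 per well, treated 16 h at 37 C with compounds in DMSO.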
Potency means the concentration at half of the fitted maximal effect; tags describe the fitted curve by direction and shape.

| Compound | Potency | activation |
| --- | --- | --- |
| CC[C@H]1O[C@]2(CC[C@@H]1C)C[C@@H]1C[C@@H](C/C=C(\C)C[C@@H](C)/C=C/C=C3CO[C@@H]4[C@H](O)C(C)=C[C@@H](C(=O)O1)[C@]34O)O2 | inconclusive [rising, full curve] | – |
| O=C(Nc1ccccc1)c1cc(Cl)ccc1O | active: 10 µM | – |
| O=C(O)C1(C(=O)Nc2ccc(Cl)cc2Cl)CC1 | inconclusive [activator, single point] | – |
| CC(C)CCCCCCc1ccc(OCCOCCO)cc1 | – | inconclusive: 95.6% |
| CC[C@H](C)C1O[C@]2(C=C[C@@H]1C)C[C@@H]1C[C@@H](C/C=C(\C)[C@@H](O[C@H]3C[C@H](OC)[C@@H](O[C@H]4C[C@H](OC)[C@H](NC(C)=O)[C@H](C)O4)[C@H](C)O3)[C@@H](C)/C=C/C=C3\CO[C@@H]4[C@H](O)C(C)=C[C@@H](C(=O)O1)[C@]34O)O2 (some centres undefined) | inconclusive [side channel, falling, full curve] | – |

system: not listed separately; assay: qHTS assay for small molecule activators of the nuclear factor-kappa B (NF-kB) signaling pathway (AID 651749; active means well fitted activation curve with a large enough effect in the signal ratio; inconclusive means small, poorly fitted or top-dose-only effect, or a change in a side signal; the % refers to the signal ratio; on activation: % of control where 0% means no effect); settings: NF-kB-bla ME-180 cells, beta-lactamase FRET ratio, 16 h; activation: stronger effect = higher value
Procedure, shortened: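 Stably transfected ME-180 line; NF-kB response element upstream of beta-lactamase. Treatment: compound or DMSO, 16 hr. Detection: fluorescent FRET substrate.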

| Compound | Potency | activation |
| --- | --- | --- |
| CC[C@H]1O[C@]2(CC[C@@H]1C)C[C@@H]1C[C@@H](C/C=C(\C)C[C@@H](C)/C=C/C=C3CO[C@@H]4[C@H](O)C(C)=C[C@@H](C(=O)O1)[C@]34O)O2 | inconclusive [cytotoxic, side channel, full curve] | – |
| CO/N=C1\C[C@]2(C[C@@H]3C[C@@H](C/C=C(\C)C[C@@H](C)/C=C/C=C4\CO[C@@H]5[C@H](O)C(C)=C[C@@H](C(=O)O3)[C@]45O)O2)O[C@H](/C(C)=C/C(C)C)[C@H]1C | inconclusive [side channel, falling, partial curve] | – |
| Cc1ccc2nc(-c3ccc(N)cc3)sc2c1S(=O)(=O)O | – | inconclusive: 5.06% |
| N#CSCSc1nc2ccccc2s1 | inconclusive [side channel, falling, single point] | – |
| c1ccc(Nc2ccccc2)cc1 | – | inactive: 0.526% and inactive: -2.1% |
| CC(C)CCCCCCc1ccc(OCCOCCO)cc1 | inconclusive [rising, partial curve] | – |
| CC[C@H](C)C1O[C@]2(C=C[C@@H]1C)C[C@@H]1C[C@@H](C/C=C(\C)[C@@H](O[C@H]3C[C@H](OC)[C@@H](O[C@H]4C[C@H](OC)[C@H](NC(C)=O)[C@H](C)O4)[C@H](C)O3)[C@@H](C)/C=C/C=C3\CO[C@@H]4[C@H](O)C(C)=C[C@@H](C(=O)O1)[C@]34O)O2 (some centres undefined) | – | inconclusive: 14.4% |
| CCCCCCCCCCCC(=O)OC | inconclusive [cytotoxic, side channel, partial curve] | – |
| Cc1cc(Cc2cc(C)cc(C(C)(C)C)c2O)c(O)c(C(C)(C)C)c1 | inconclusive [side channel, falling, partial curve] | – |

system: not listed separately; assay: qHTS assay to identify small molecules that stimulate interleukin-8 (IL-8) secretion (AID 651758; active means well fitted activation curve with a large enough effect in the signal ratio; inconclusive means small, poorly fitted or top-dose-only effect, or effect the other way, or a change in a side signal; the % refers to the signal ratio; on activation: 0% is about no effect); settings: HTRF ratio (665/615); activation: at 92.2 µM (top of the series)
Procedure, shortened: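 Secreted IL-8 measured by TR-FRET sandwich (cryptate and XL665 antibodies) from THP-1 cells exposed to compound overnight (16 hrs, 37 C).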

| Compound | activation | Potency |
| --- | --- | --- |
| Cc1ccc2nc(-c3ccc(N)cc3)sc2c1S(=O)(=O)O | inconclusive: 1.87% | – |
| C[C@@H]1CC2(OC[C@]3(C)O[C@H]23)O[C@H]2C[C@@]3(C)[C@@H]4CC[C@H]5C(C)(C)C(O[C@@H]6OC[C@@H](O)[C@H](O)[C@H]6O)CC[C@@]56C[C@@]46CC[C@]3(C)[C@@H]12 (some centres undefined) | – | inconclusive [inhibitor, single point] |
| c1ccc(Nc2ccccc2)cc1 | inconclusive: 29% | – |
| Cc1ccc2c(c1[N+](=O)[O-])C(=O)c1ccccc1C2=O | – | inconclusive [activator, single point] |

target: Peroxisome proliferator-activated receptor alpha (Homo sapiens) (UniProt Q07869); assay: qHTS assay for small molecule agonists of the peroxisome proliferator-activated receptor alpha (PPARalpha) signaling pathway (AID 651778; active means well fitted curve in the direction sought with a large enough effect; inconclusive means small, poorly fitted or top-dose-only effect, or another doubt; inactive means no such curve, though single readings can be large; an effect the other way counts as inactive or inconclusive); settings: PathHunter PPARalpha complementation, chemiluminescence, 6 h; max response: stronger effect = higher value
Procedure, shortened: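 Chemiluminescence from complemented enzyme reported PPARalpha activation in cells after 6 hr of compound treatment at 37 C. The detection reagent was incubated for 60 min at room temperature, and compounds were scored as agonists.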

UniProt Q07869, sequence (Q07869 whole entry, looked up): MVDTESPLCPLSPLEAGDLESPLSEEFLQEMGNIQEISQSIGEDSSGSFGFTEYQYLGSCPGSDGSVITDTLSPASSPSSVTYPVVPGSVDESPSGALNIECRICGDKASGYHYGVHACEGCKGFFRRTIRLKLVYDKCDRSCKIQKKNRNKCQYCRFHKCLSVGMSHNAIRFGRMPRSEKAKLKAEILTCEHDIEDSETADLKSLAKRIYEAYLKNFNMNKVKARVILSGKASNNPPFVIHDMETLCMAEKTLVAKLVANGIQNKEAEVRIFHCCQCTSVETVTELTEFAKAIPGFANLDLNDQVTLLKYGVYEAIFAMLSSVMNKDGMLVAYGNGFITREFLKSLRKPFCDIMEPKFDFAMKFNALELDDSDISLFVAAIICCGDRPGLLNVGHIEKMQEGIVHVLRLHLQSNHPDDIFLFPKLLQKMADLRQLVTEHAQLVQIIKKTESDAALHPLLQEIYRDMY

| Compound | Potency |
| --- | --- |
| CC[C@H]1O[C@]2(CC[C@@H]1C)C[C@@H]1C[C@@H](C/C=C(\C)C[C@@H](C)/C=C/C=C3CO[C@@H]4[C@H](O)C(C)=C[C@@H](C(=O)O1)[C@]34O)O2 | inconclusive [activator, partial curve] |
| CO/N=C1\C[C@]2(C[C@@H]3C[C@@H](C/C=C(\C)C[C@@H](C)/C=C/C=C4\CO[C@@H]5[C@H](O)C(C)=C[C@@H](C(=O)O3)[C@]45O)O2)O[C@H](/C(C)=C/C(C)C)[C@H]1C | inconclusive [activator, partial curve] |
| CC(C)CCCCCCc1ccc(OCCOCCO)cc1 | inconclusive [activator, partial curve] |
| Cc1cc(Cc2cc(C)cc(C(C)(C)C)c2O)c(O)c(C(C)(C)C)c1 | inconclusive [activator, partial curve] |

system: not listed separately; assay: qHTS assay for small molecule agonists of the antioxidant response element (ARE) signaling pathway measured by Nrf2-dependant transcriptional activity (AID 720636); settings: ARE-luc HepG2, Nrf2 luciferase reporter, 16 h; series mostly up to 92.4 µM;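 on activation: HepG2 cells with an ARE-driven luciferase reporter; % of control where 0% means no effect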
Procedure, shortened: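 Attachment 6 hr at 37 C, then compound versus DMSO vehicle for 16 hr in ARE-luc HepG2 cells (1% dialyzed FBS); luminescence recorded 30 min after ONE-Glo addition at room temperature.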

| Compound | Potency |
| --- | --- |
| O=C(O)c1cc(O)c2ccccc2c1O | inconclusive [activator, partial curve, poor fit] |
| O=C(Nc1ccccc1)c1cc(Cl)ccc1O | inconclusive [activator, full curve, poor fit] |
| O=C1NC(=O)C(Cc2ccc(OCCN3COc4ccccc4C3=O)cc2)S1 (centres undefined) | inconclusive [activator, partial curve, poor fit] |
| FC(F)(F)c1ccc(Cl)c(Cl)c1 | inactive |
| Cc1ccc2nc(-c3ccc(N)cc3)sc2c1S(=O)(=O)O | inconclusive [activator, full curve, poor fit] |
| Nc1ccc(N)c2c1C(=O)c1c(N)ccc(N)c1C2=O | inconclusive [activator, full curve, poor fit] |
| O=C(O)C1(C(=O)Nc2ccc(Cl)cc2Cl)CC1 | inconclusive [activator, partial curve, poor fit] |
| Cc1ccc2c(c1[N+](=O)[O-])C(=O)c1ccccc1C2=O | inconclusive [activator, partial curve, poor fit] |
| O=c1[nH]sc2ccccc12 | inconclusive [activator, partial curve, poor fit] |
| O=C(Nc1ccccc1)c1ccccc1O | inconclusive [activator, partial curve, poor fit] |
| CCCCCCCCCCCC(=O)OC | inconclusive [activator, partial curve] |
| O=C(O)c1cc2ccccc2cc1O | inconclusive [activator, partial curve, poor fit] |
